Assay results taken from paper PMC11149917, “Translational and Therapeutic Evaluation of RAS-GTP Inhibition by RMC-6236 in RAS-Driven Cancers” (Cancer Discovery, 2024).
The source gives many values for each of these; only a part stands here.

Tested on: PRISM panel of 845 cancer cell lines
Assay: PRISM assay
Type: cell-based, human
Experimental: The PRISM cell set comprised 845 cell lines representing more than 45 lineages (see Supplementary Table S1 for cell line information), which largely overlapped with the Cancer Cell Line Encyclopedia; https://portals.broadinstitute.org/ccle). Cell lines were grown in RPMI without phenol red and supplemented with 10% or 20% FBS for adherent and suspended lines, respectively. Parental cell lines were stably infected with a unique 24-nucleotide DNA barcode via lentiviral transduction and blasticidin selection. After selection, barcoded cell lines were expanded and subjected to quality control (Mycoplasma contamination test, an SNP test for confirming cell line identity, and barcode ID confirmation). Approved cell lines were then pooled (20–25 cell lines per pool) based on doubling time similarity and frozen in assay-ready vials.
RMC-6236 was added to 384-well plates at 8-point concentration with 3-fold dilutions in triplicate. These assay-ready plates were then seeded with the thawed cell line pools. Adherent cell pools were plated at 1,250 cells per well, whereas suspension and mixed adherent/suspension pools were plated at 2,000 cells per well. Treated cells were incubated for 5 days, and then lysed. Lysate plates were collapsed together prior to barcode amplification and detection.
Each cell line's unique barcode is located in the 3′UTR of the blasticidin-resistance gene and therefore is expressed as mRNA. Total mRNA was captured using magnetic particles that recognize polyA sequences. Captured mRNA was reverse-transcribed into cDNA and then the sequence containing the unique PRISM barcode was amplified using PCR. Finally, Luminex beads that recognize the specific barcode sequences in the cell set were hybridized to the PCR products and detected using a Luminex scanner which reports the signal as a median fluorescent intensity (MFI).
• Each detection well contained 10 control barcodes in increasing abundances as spike-in controls. For each plate, we first create a reference profile by calculating the median of the log2(MFI) values across negative control wells for each of these spiked-in barcodes. • For each well, a monotonic smooth p-spline was fitted to map the spike-in control levels to the reference profile. Next, we transform the log2(MFI) for each cell barcode using the fitted spline to allow well-to-well comparisons by correcting for amplification and detection artifacts. • Next, the separability between negative and positive control treatments was assessed. In particular, we calculated the error rate of the optimum simple threshold classifier between the control samples for each cell line and plate combination. The error rate is a measure of the overlap of the two control sets and was defined as error = (FP + FN)/n, where FP is false positives, FN is false negatives, and n is the total number of controls. A threshold was set between the distributions of positive and negative control log2(MFI) values (with everything below the threshold said to be positive and above said to be negative) such that this value is minimized. Additionally, we also calculated the dynamic range of each cell line. […] Additionally, any cell line that had less than 2 passing replicates was also omitted for the sake of reproducibility. Finally, we computed viability by normalizing with respect to the median negative control for each plate.
For every gene with nonsilent mutations in at least four cell lines, we compared the AUC values between cells with and without those mutations using a t test. This analysis was carried out for (i) the full data set; (ii) excluding cell lines with nonsilent KRAS mutations; and (iii) excluding cell lines that have either KRAS or NRAS nonsilent mutations.

CCn1c(-c2cc(N3CCN(C)CC3)cnc2[C@H](C)OC)c2c3cc(ccc31)-c1csc(n1)C[C@H](NC(=O)[C@H]1C[C@@H]1C)C(=O)N1CCC[C@H](N1)C(=O)OCC(C)(C)C2 [RMC-6236]
RMC-6236: RevMed PRISM: AUC (JJN3_HAEMATOPOIETIC_AND_LYMPHOID_TISSUE, NRAS p.Q61K): 0.5016
RMC-6236: RevMed PRISM: AUC (JM1_HAEMATOPOIETIC_AND_LYMPHOID_TISSUE): 0.9157
RMC-6236: RevMed PRISM: AUC (JMSU1_URINARY_TRACT): 0.9046
RMC-6236: RevMed PRISM: AUC (JOPACA1_PANCREAS, KRAS p.G12V): 0.3607
RMC-6236: RevMed PRISM: AUC (JVM3_HAEMATOPOIETIC_AND_LYMPHOID_TISSUE): 0.8423
RMC-6236: RevMed PRISM: AUC (KATOIII_STOMACH): 0.6304
RMC-6236: RevMed PRISM: AUC (KE37_HAEMATOPOIETIC_AND_LYMPHOID_TISSUE, NRAS p.G12D): 0.6632
RMC-6236: RevMed PRISM: AUC (KHM1B_HAEMATOPOIETIC_AND_LYMPHOID_TISSUE, KRAS p.G12C): 0.6016
RMC-6236: RevMed PRISM: AUC (KMBC2_URINARY_TRACT): 0.4217
RMC-6236: RevMed PRISM: AUC (KMCH1_BILIARY_TRACT): 0.9105
RMC-6236: RevMed PRISM: AUC (KMRC20_KIDNEY): 0.7172
RMC-6236: RevMed PRISM: AUC (KMS12BM_HAEMATOPOIETIC_AND_LYMPHOID_TISSUE): 0.9588
RMC-6236: RevMed PRISM: AUC (KMS21BM_HAEMATOPOIETIC_AND_LYMPHOID_TISSUE, NRAS p.Q61L): 0.6256
RMC-6236: RevMed PRISM: AUC (KMS28BM_HAEMATOPOIETIC_AND_LYMPHOID_TISSUE, KRAS p.G12A): 0.8006
RMC-6236: RevMed PRISM: AUC (KNS60_CENTRAL_NERVOUS_SYSTEM): 0.8532
RMC-6236: RevMed PRISM: AUC (KNS62_LUNG, HRAS p.Q61L): 0.5904
RMC-6236: RevMed PRISM: AUC (KON_UPPER_AERODIGESTIVE_TRACT): 0.4878
RMC-6236: RevMed PRISM: AUC (KP3_PANCREAS, KRAS p.G12V): 0.5452
RMC-6236: RevMed PRISM: AUC (KP4_PANCREAS, KRAS p.G12D): 0.699
RMC-6236: RevMed PRISM: AUC (KS1_CENTRAL_NERVOUS_SYSTEM): 0.7035
RMC-6236: RevMed PRISM: AUC (KU812_HAEMATOPOIETIC_AND_LYMPHOID_TISSUE): 0.6659
RMC-6236: RevMed PRISM: AUC (KURAMOCHI_OVARY): 0.9644
RMC-6236: RevMed PRISM: AUC (KYM1_SOFT_TISSUE): 0.6118
RMC-6236: RevMed PRISM: AUC (KYO1_HAEMATOPOIETIC_AND_LYMPHOID_TISSUE): 0.52
RMC-6236: RevMed PRISM: AUC (KYSE70_OESOPHAGUS): 0.7378
RMC-6236: RevMed PRISM: AUC (KYSE140_OESOPHAGUS): 0.7127
RMC-6236: RevMed PRISM: AUC (KYSE180_OESOPHAGUS): 0.7308
RMC-6236: RevMed PRISM: AUC (KYSE270_OESOPHAGUS): 0.751
RMC-6236: RevMed PRISM: AUC (KYSE520_OESOPHAGUS): 0.7057
RMC-6236: RevMed PRISM: AUC (L33_PANCREAS, KRAS p.G12D): 0.6282
RMC-6236: RevMed PRISM: AUC (LAMA84_HAEMATOPOIETIC_AND_LYMPHOID_TISSUE): 0.511
RMC-6236: RevMed PRISM: AUC (LC1SQSF_LUNG): 0.7959
RMC-6236: RevMed PRISM: AUC (LCLC103H_LUNG): 0.8089
RMC-6236: RevMed PRISM: AUC (LK2_LUNG): 0.6661
RMC-6236: RevMed PRISM: AUC (LMSU_STOMACH): 0.8111
RMC-6236: RevMed PRISM: AUC (LN18_CENTRAL_NERVOUS_SYSTEM): 0.7558
RMC-6236: RevMed PRISM: AUC (LN229_CENTRAL_NERVOUS_SYSTEM): 0.8162
RMC-6236: RevMed PRISM: AUC (LN464_CENTRAL_NERVOUS_SYSTEM): 0.8914
RMC-6236: RevMed PRISM: AUC (LNCAPCLONEFGC_PROSTATE): 0.8567
RMC-6236: RevMed PRISM: AUC (LOUNH91_LUNG): 0.3593
RMC-6236: RevMed PRISM: AUC (LPS141_SOFT_TISSUE): 1
RMC-6236: RevMed PRISM: AUC (LS180_LARGE_INTESTINE, KRAS p.G12D): 0.4318
RMC-6236: RevMed PRISM: AUC (LS1034_LARGE_INTESTINE, KRAS p.A146T): 0.6768
RMC-6236: RevMed PRISM: AUC (LU99_LUNG, KRAS p.G12C): 0.5232
RMC-6236: RevMed PRISM: AUC (LUDLU1_LUNG): 0.6736
RMC-6236: RevMed PRISM: AUC (M059K_CENTRAL_NERVOUS_SYSTEM): 0.8426
RMC-6236: RevMed PRISM: AUC (MCC26_SKIN, HRAS p.G12D): 1
RMC-6236: RevMed PRISM: AUC (MCC142_SKIN): 0.9196
RMC-6236: RevMed PRISM: AUC (MCF7_BREAST): 0.8891
RMC-6236: RevMed PRISM: AUC (MDAMB175VII_BREAST): 0.5554
RMC-6236: RevMed PRISM: AUC (MDAMB435S_SKIN): 0.9318
RMC-6236: RevMed PRISM: AUC (MDAMB436_BREAST): 0.8987
RMC-6236: RevMed PRISM: AUC (MDAMB468_BREAST): 0.776
RMC-6236: RevMed PRISM: AUC (MDST8_LARGE_INTESTINE): 1
RMC-6236: RevMed PRISM: AUC (MEG01_HAEMATOPOIETIC_AND_LYMPHOID_TISSUE): 0.468
RMC-6236: RevMed PRISM: AUC (MEL285_UVEA): 0.709
RMC-6236: RevMed PRISM: AUC (MEL290_UVEA): 0.9793
RMC-6236: RevMed PRISM: AUC (MELHO_SKIN): 0.9942
RMC-6236: RevMed PRISM: AUC (MEWO_SKIN): 0.7334
RMC-6236: RevMed PRISM: AUC (MFE296_ENDOMETRIUM): 1
RMC-6236: RevMed PRISM: AUC (MFE319_ENDOMETRIUM): 1
RMC-6236: RevMed PRISM: AUC (MHHES1_BONE): 0.8742
RMC-6236: RevMed PRISM: AUC (MKN7_STOMACH): 0.6783
RMC-6236: RevMed PRISM: AUC (MKN45_STOMACH): 0.3943
RMC-6236: RevMed PRISM: AUC (MONOMAC6_HAEMATOPOIETIC_AND_LYMPHOID_TISSUE): 0.7011
RMC-6236: RevMed PRISM: AUC (MPP89_PLEURA): 0.9671
RMC-6236: RevMed PRISM: AUC (MS751_CERVIX): 0.8009
RMC-6236: RevMed PRISM: AUC (MSTO211H_PLEURA): 0.6789
RMC-6236: RevMed PRISM: AUC (NB1_AUTONOMIC_GANGLIA): 0.681
RMC-6236: RevMed PRISM: AUC (NB4_HAEMATOPOIETIC_AND_LYMPHOID_TISSUE, KRAS p.A18D): 0.6933
RMC-6236: RevMed PRISM: AUC (NCCIT_TESTIS): 1
RMC-6236: RevMed PRISM: AUC (NCIH23_LUNG, KRAS p.G12C): 0.6322
RMC-6236: RevMed PRISM: AUC (NCIH28_PLEURA): 0.7774
RMC-6236: RevMed PRISM: AUC (NCIH82_LUNG): 0.8641
RMC-6236: RevMed PRISM: AUC (NCIH196_LUNG): 0.9944
RMC-6236: RevMed PRISM: AUC (NCIH211_LUNG): 0.9486
RMC-6236: RevMed PRISM: AUC (NCIH322_LUNG): 0.6812
RMC-6236: RevMed PRISM: AUC (NCIH358_LUNG, KRAS p.G12C): 0.2807
RMC-6236: RevMed PRISM: AUC (NCIH441_LUNG, KRAS p.G12V): 0.4143
RMC-6236: RevMed PRISM: AUC (NCIH460_LUNG, KRAS p.Q61H): 0.4565
RMC-6236: RevMed PRISM: AUC (NCIH520_LUNG): 0.994
RMC-6236: RevMed PRISM: AUC (NCIH596_LUNG): 0.7582
RMC-6236: RevMed PRISM: AUC (NCIH647_LUNG, KRAS p.G13D): 0.7687
RMC-6236: RevMed PRISM: AUC (NCIH650_LUNG, KRAS p.Q61L): 0.7186
RMC-6236: RevMed PRISM: AUC (NCIH661_LUNG): 0.8097
RMC-6236: RevMed PRISM: AUC (NCIH727_LUNG, KRAS p.G12V): 0.5432
RMC-6236: RevMed PRISM: AUC (NCIH838_LUNG): 0.8136
RMC-6236: RevMed PRISM: AUC (NCIH841_LUNG): 0.9452
RMC-6236: RevMed PRISM: AUC (NCIH1048_LUNG, NRAS p.T20NfsTer11): 0.7503
RMC-6236: RevMed PRISM: AUC (NCIH1299_LUNG, NRAS p.Q61K): 0.6264
RMC-6236: RevMed PRISM: AUC (NCIH1341_LUNG): 0.699
RMC-6236: RevMed PRISM: AUC (NCIH1437_LUNG): 0.7539
RMC-6236: RevMed PRISM: AUC (NCIH1563_LUNG): 0.7485
